Results taken from paper PMC4336329 (PLoS ONE, 2015).
In all, about 310,000 compounds went through this assay and about 2,200 (0.71%) showed an effect of 50% or more. The effect is printed as a negative number. Some of the results follow.

biological target: human ether-à-go-go-related gene (hERG) potassium channel (human, UniProt Q12809); assay: primary screen, population patch clamp on CHO cells stably expressing hERG
Sequence (Q12809 whole entry, looked up): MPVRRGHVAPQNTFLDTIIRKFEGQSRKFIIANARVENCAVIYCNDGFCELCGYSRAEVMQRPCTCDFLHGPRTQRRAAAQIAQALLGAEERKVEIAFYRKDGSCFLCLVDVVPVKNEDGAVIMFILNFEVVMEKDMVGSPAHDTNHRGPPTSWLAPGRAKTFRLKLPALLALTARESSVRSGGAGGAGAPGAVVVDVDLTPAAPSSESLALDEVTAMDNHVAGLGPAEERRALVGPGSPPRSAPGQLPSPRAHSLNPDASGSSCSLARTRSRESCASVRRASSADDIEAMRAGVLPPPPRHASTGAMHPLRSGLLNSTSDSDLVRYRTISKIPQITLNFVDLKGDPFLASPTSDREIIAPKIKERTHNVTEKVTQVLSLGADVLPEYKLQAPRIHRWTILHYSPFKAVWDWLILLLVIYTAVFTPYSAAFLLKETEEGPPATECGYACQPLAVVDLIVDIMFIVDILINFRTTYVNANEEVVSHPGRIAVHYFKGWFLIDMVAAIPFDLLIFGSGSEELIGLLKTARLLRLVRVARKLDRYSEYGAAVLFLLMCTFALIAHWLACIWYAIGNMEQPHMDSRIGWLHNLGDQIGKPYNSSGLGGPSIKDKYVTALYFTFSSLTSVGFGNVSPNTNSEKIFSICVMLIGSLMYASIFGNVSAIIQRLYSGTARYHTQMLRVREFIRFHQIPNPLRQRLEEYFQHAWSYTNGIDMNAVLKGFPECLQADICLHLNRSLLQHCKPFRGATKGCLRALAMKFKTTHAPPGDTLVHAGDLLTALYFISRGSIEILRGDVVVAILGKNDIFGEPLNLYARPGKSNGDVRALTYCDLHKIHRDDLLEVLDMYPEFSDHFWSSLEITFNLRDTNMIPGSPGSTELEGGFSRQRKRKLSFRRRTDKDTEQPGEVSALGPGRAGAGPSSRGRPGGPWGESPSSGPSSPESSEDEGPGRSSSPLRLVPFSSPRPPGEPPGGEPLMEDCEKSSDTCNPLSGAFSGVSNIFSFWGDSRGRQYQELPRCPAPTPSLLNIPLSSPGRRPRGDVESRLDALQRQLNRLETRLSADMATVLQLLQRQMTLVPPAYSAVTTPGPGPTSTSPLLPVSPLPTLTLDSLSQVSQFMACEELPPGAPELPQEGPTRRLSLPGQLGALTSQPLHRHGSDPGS

| SMILES | hERG current change (%, negative = inhibition) at 1uM |
| --- | --- |
| CCOc1ccc(NC(=O)C/C(C)=N/NC(=O)Cc2cccs2)cc1 | 20% |
| O=C(CN1CCCC1)Nc1c2c(nc3ccccc13)N(Cc1ccccc1)CC2.O=C(O)C(=O)O | 5.47% |
| C=CCc1cccc2cc(C(=O)N3CCN(C(=O)c4ccccc4)CC3)c(=O)oc12 | 8.04% |
| Cc1cc(/C=N/NC(N)=O)c(C)n1C1CCCCC1 | 2.5% |
| COc1ccc2nc(SCC(=O)Nc3ccc4c(c3)CCC4)[nH]c2c1 | 10.4% |
| COC(=O)C(C)Sc1ccc2nnc(-c3ccccc3)n2n1 (stereo not shown) | -2.06% |
| Cc1ccc(C(=O)NN2CCOCC2)cc1[N+](=O)[O-] | 15.1% |
| Cc1cccnc1NC(=O)C1CCN(S(=O)(=O)c2ccc3c(c2)CCC(=O)N3)CC1 | 15% |
| Cc1[nH]c2c(ccc3cccnc32)c1C | 11.7% |
| COc1ccc(/C=N\NC(=O)c2ccccc2Br)cc1COc1c(F)c(F)cc(F)c1F | 3.99% |
| COc1ccc(CCC(=O)NCCCNC(=O)CCc2ccc(OC)cc2)cc1 | 10.1% |
| COc1cccc(/C=C/C(=O)OCC(=O)c2ccc(C)c(C)c2)c1OC | 2.49% |
| CCOc1ccc(OCCC(=O)N(CC)CC(=O)Nc2c(F)cccc2F)cc1 | -8.38% |
| Cc1cc(NC(=O)CSc2nnc(C3CC3)n2N)no1 | 6.51% |
| CCOc1cc(/C=N/NC(=O)c2cccnc2)ccc1OCC(N)=O | 10.8% |
| CC(=O)N1CCC(=O)Nc2ccc([N+](=O)[O-])cc21 | 10.9% |
| CC(OC(=O)c1ccc2ncsc2c1)C(=O)Nc1cccc(Cl)c1 (stereo not shown) | 8.7% |
| Cc1ccc(N2C(=O)N(CC(=O)Nc3ccc(C)c(C)c3)C(=O)C2C)cc1 (stereo not shown) | 7.57% |
| O=C(COC(=O)c1c[nH]c2ccccc12)Nc1ccc([N+](=O)[O-])cc1 | 4.86% |
| O=C(Cc1ccccc1)NCc1ccc(-n2cccc2)cc1 | 20.6% |
| CCOC(=O)C1CCN(C(c2ccccn2)c2c(C)[nH]c3ccccc23)CC1 (stereo not shown) | -0.662% |
| CSc1cccc(NC(=O)C2CC(=O)N(Cc3ccccc3)C2)c1 (stereo not shown) | 6.3% |
| O=C(CCn1c(=O)oc2ccccc21)N1CCN(c2ccccc2Cl)CC1 | 2.43% |
| O=C(Nc1cccc(C(F)(F)F)c1)C1CCCN1S(=O)(=O)c1cccc2cccnc12 (stereo not shown) | -2.23% |
| Cc1ccc(NC(=O)CSc2ncn[nH]2)cc1 | 14.8% |
| C=C1C2(C(=O)NCc3ccco3)CCC(C2)C1(C)C (stereo not shown) | 7.25% |
| Br.Cc1ccc(C(=O)C(c2ccccc2)N2Cc3ccccc3C2=N)cc1 (stereo not shown) | 3% |
| Cc1cc(C)c2nc(NC(=O)CN3C(=O)NC4(CCCC4)C3=O)sc2c1 | 17.9% |

| SMILES | hERG current change (%, negative = inhibition) at 1uM |
| --- | --- |
| C#CCNC(=O)C1=C[C@H](c2ccc(Br)cc2)C[C@H](OCCCCO)O1 | 11.3% |
| COc1ccc(NC(=O)CCc2c(C)nc3nc(C)nn3c2C)cc1 | 16% |
| CCOC(=O)c1[nH]cnc1C(=O)Nc1cccc(N)n1 | 4.15% |
| Cc1ccc(CN2CCN(Cc3c(C)nn(C(C)C)c3C)CC2CCO)o1 (stereo not shown) | 10.6% |
| CN1CCN(C(=S)c2ccc(-c3cccc([N+](=O)[O-])c3)o2)CC1 | 0.959% |
| NC(=O)CSc1nnc(Cn2cnc3ccccc32)o1 | 12.9% |
| COc1ccccc1/C=N/NC(=O)CNC(=O)c1ccccc1 | 0.456% |
| CSCC(=O)N1CCC(n2nccc2NC(=O)CCc2ccccc2)CC1 | 16.8% |
| CN(C)N=Nc1nc2c(c(=O)n(C)c(=O)n2C)n1CC1CO1 (stereo not shown) | 4.28% |
| CCc1ccc(S(=O)(=O)NCCOc2cccc3cccnc23)cc1 | 7% |
| OCOCCCn1c(C2CCCN2c2nc(-c3ccc(F)cc3)cs2)nc2cc(Cl)c(N3CCCCC3)cc21 (stereo not shown) | 6.69% |
| Cc1cc(C)c(-n2c(O)c(/C=N/NC(=O)c3ccncc3)c(=O)[nH]c2=O)c(C)c1 | 6.69% |
| C#CCOCCOCCOCCNc1nc(N2CCN(C(=O)[C@H](Cc3ccc(O)cc3)n3cc([C@@H](N)C(C)CC)nn3)CC2)nc(N2CCN(C(=O)[C@H](Cc3cc4ccccc4[nH]3)n3cc([C@@H](N)Cc4ccc(O)cc4)nn3)CC2)n1.Cl (stereo partly shown) | 11.8% |
| Cc1cccc(NC(=O)CNC(=O)c2cn(Cc3ccccc3)nc2-c2cccnc2)c1C | 5.89% |
| O=C(NNC(=O)c1ccccc1O)c1ccco1 | 18% |
| Cc1cnc(NC(=O)c2cncc(Br)c2)s1 | 8.91% |
| COC(=O)c1ccc(Cn2nc(-c3ccc(C)c(C)c3)ccc2=O)cc1 | 12.9% |
| Nc1nc(N)c2c(ccc3nccc32)[nH]1 | 16.9% |
| Cn1c(N)c(C(C[N+](=O)[O-])c2ccccc2Cl)c(=O)n(C)c1=O (stereo not shown) | 15.4% |
| COc1ccc(CCNC(=O)c2cccc(NS(=O)(=O)c3ccccc3F)c2)cc1OC | 13.9% |
| O=C(NN=C1CCCC1)c1cccs1 | 8.69% |
| CCOc1ccc(NC(=O)CC2C(=O)N(CC)C(=S)N2CCN2CCOCC2)cc1 (stereo not shown) | 5.68% |
| Cc1ccc(S(=O)(=O)n2cnc3cc([N+](=O)[O-])ccc32)cc1C | -4.95% |
| CN(C)C(CNC(=O)c1cccc(S(=O)(=O)NCc2ccccc2)c1)c1ccco1 (stereo not shown) | 2.97% |
| CCn1c(SCC(=O)NCC2CCCO2)nc2c(c1=O)SC(C)C2 (stereo not shown) | 16.9% |
| Cl.c1ccc(COc2cccc(CNCc3cccnc3)c2)cc1 | 14% |
| NC(=O)CC1NC(=O)c2cc([N+](=O)[O-])cc(I)c2OCCC(C(N)=O)NC(=O)[C@@H]2CCCN2C1=O (stereo partly shown) | 8.11% |
